PubChem BioAssay AID1745853 (National Center for Advancing Translational Sciences (NCATS), 2022)
The list shows a part of the results. The main result of the screen is listed elsewhere. These columns were measured beside it and carry no call.

What was measured:
Test in all cases: Primary Screen for Target Class Profiling of Small Molecule Inhibitors of Methyltransferases
[1] = biological target: Glycine N-methyltransferase (Homo sapiens) (UniProt Q14749); conditions: purified enzyme, MTase-Glo SAH luminescence; measured here: GNMT inhibition; at 40 µM; stronger effect = lower value
How it was run: (§1)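 Each enzyme was assayed with SAM and its substrate. SAH formation detected by MTase-Glo luminescence; single-point 40 uM screen[…].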

[2] = biological target: Guanidinoacetate N-methyltransferase (Homo sapiens) (UniProt Q14353); conditions: purified enzyme, MTase-Glo SAH luminescence; measured here: GAMT inhibition; at 40 µM; stronger effect = lower value
How it was run: as §1

[3] = biological target: Histamine N-methyltransferase (Homo sapiens) (UniProt P50135); conditions: purified enzyme, MTase-Glo SAH luminescence; measured here: HNMT inhibition; at 40 µM; stronger effect = lower value
How it was run: as §1

[4] = biological target: Nicotinamide N-methyltransferase (Homo sapiens) (UniProt P40261); conditions: purified enzyme, MTase-Glo SAH luminescence; measured here: NNMT inhibition; at 40 µM; stronger effect = lower value
How it was run: as §1

[5] = biological target: Phenylethanolamine N-methyltransferase (Homo sapiens) (UniProt P11086); conditions: purified enzyme, MTase-Glo SAH luminescence; measured here: PNMT inhibition; at 40 µM; stronger effect = lower value
How it was run: as §1
On the % scale 0 is the no-effect control and ±100 the full control effect.

| SMILES | activity change, negative = inhibition [1] [%] | activity change, negative = inhibition [2] [%] | activity change, negative = inhibition [3] [%] | activity change, negative = inhibition [4] [%] | activity change, negative = inhibition [5] [%] |
| --- | --- | --- | --- | --- | --- |
| COc1cc(/C=C/c2cc(O)cc(O[C@@H]3O[C@H](CO)[C@@H](O)[C@H](O)[C@H]3O)c2)ccc1O | -0.643 | -15.7 | -7.56 | -26.4 | 0.687 |
| Cn1nccc1C(=O)N1CCCC(c2nc(-c3ccccc3)no2)CCNC(=O)CC1 (stereo not given) | -3.54 | 1.01 | -3.42 | -3.41 | 0.317 |
| CN1CCN(C(=O)CN[C@@H]2C[C@H]2c2ccc(OCc3ccccc3)cc2)CC1 | -0.157 | 0.39 | -0.037 | -12.2 | -4.83 |
| Cc1cccc(CNC(=O)C2CCc3sc(C(=O)N4CCOCC4)cc3C2)c1 (stereo not given) | -1.33 | -0.593 | 0.888 | -3.7 | 1.14 |
| Cc1cccc(CNC(=O)C2(C)Cn3cnc(C(=O)NCc4ccccn4)c3C(=O)N2C2CC2)c1 (stereo not given) | -2.92 | 0 | 2.26 | -0.463 | -2.02 |
| Cc1ccc(N2C(=O)c3cc4occc4n3CC2(C)C(=O)NC2CCCCC2C)cc1C (stereo not given) | 2.52 | 1.26 | 7.73 | 8.02 | 2.73 |
| NC(=O)[C@@H]1CCCN1C(=O)c1ccc2oc(-c3cccc(F)c3)nc2c1 | -8.32 | -8.79 | -8.03 | -9.16 | -2.11 |
| C=CC[C@]12C[C@@H](OC)C(=O)C(OC)=C1O[C@@H](c1cc(OC)c3c(c1)OCO3)[C@@H]2C | -1.1 | 5.83 | 5.34 | -6.33 | 2.79 |
| CC1CC(C)CN(S(=O)(=O)c2ccc3c(c2)oc(=O)n3CC(=O)NC2CCCCC2C)C1 (stereo not given) | -9.84 | 1.05 | -1.76 | -11 | -12.6 |
| NCC(=O)N1CCC2(CC1)C(=O)NCN2C(=O)c1ccc(Cl)cc1 | 1.91 | -1.88 | -0.253 | 0.009 | -5.56 |
| O=C1CCN(C(=O)[C@@H]2CCCN2C(=O)Nc2ccccc2)CCCCCCN1 | -5.51 | -3.48 | -0.06 | -5.67 | 0.745 |
| Cc1cccc(CC(=O)N2CCCn3cc(-c4cccc(C#N)c4)nc32)c1 | -8.29 | -6.25 | -23.4 | -16.1 | -7.36 |
| Cn1nccc1-c1cc2c(cn1)CN(Cc1ccncc1)CCN2 | -10.5 | -6.31 | -61.6 | -25.1 | -13.8 |
| C[C@H]1CC[C@@]2(OC1)O[C@H]1CC3C4CC=C5C[C@H](O)C[C@@H](O[C@@H]6O[C@@H](C)[C@H](O)[C@@H](O)[C@H]6O[C@@H]6O[C@@H](C)[C@H](O)[C@@H](O)[C@H]6O)[C@]5(C)C4CC[C@]3(C)[C@H]1[C@@H]2C (stereo not given in full) | 0 | 19.1 | 9.05 | 4.21 | 5.8 |
| Cc1cn(C[C@H](N)C(=O)O)c(=O)n(Cc2ccsc2C(=O)O)c1=O | -0.388 | 4.06 | 9.77 | -9.91 | 5.5 |
| CCCc1noc(-c2cccn3c(CNC(=O)c4ccc(OCC)cc4)nnc23)n1 | -7.05 | -5.34 | -4.46 | -9.03 | 3.18 |
| Cc1ccc(CNC(=O)C2(C)Cn3nc(C(=O)NCc4ccccn4)cc3C(=O)N2C)cc1 (stereo not given) | 4.79 | 3.24 | -4.98 | 4.36 | 5.36 |
| CN(C)C(=O)c1nc2sccn2c1Br | 404 | -7.47 | -0.836 | -14.2 | -7.58 |
| CCc1ccccc1NC(=O)Cn1nc2n(C(C)C)c(=O)c3ccc(C(=O)NC(C)C)cc3n2c1=O | 1.75 | 0 | 4.55 | -5.5 | 3.03 |

| SMILES | activity change, negative = inhibition [1] [%] | activity change, negative = inhibition [2] [%] | activity change, negative = inhibition [3] [%] | activity change, negative = inhibition [4] [%] | activity change, negative = inhibition [5] [%] |
| --- | --- | --- | --- | --- | --- |
| CN(Cc1nc(-c2ccccc2)cs1)C(=O)c1cccc(-n2cnnc2)c1 | -3.33 | -2.87 | -2.79 | -10.6 | 5.88 |
| CCCNC(=O)c1ncn2c1C(=O)N(C1CC1)C(C)(C(=O)NCc1ccc(F)cc1)C2 (stereo not given) | 4.5 | 0 | 12.3 | 8.23 | 7.85 |
| O=C(CN1CCOC1=O)N1CCn2nc(C(O)Cc3ccccc3)cc2C1 (stereo not given) | -2 | -0.683 | 1.34 | -0.03 | 4.62 |
| O=C(NC1CCCCC1)O[C@@H]1CO[C@H]2[C@@H]1OC[C@@H]2n1nnnc1SCc1ccco1 | -8.1 | -4.7 | -1.86 | -0.837 | -1.4 |
| CN(CC1CCOC1)C(=O)NCc1ccc(F)cc1 (stereo not given) | -4.2 | -6.89 | -0.71 | -11.9 | -7.43 |
| CNC(=O)CN1CCC(Oc2cc3c(Nc4cccc(Cl)c4F)ncnc3cc2OC)CC1 | -54.4 | -24.6 | -46.4 | -32.7 | -37.5 |
| COc1ccc(NC(=O)Cn2nc3n(CC(C)C)c(=O)c4ccccc4n3c2=O)cc1OC | -5 | 5.84 | 0.888 | -4.92 | -3.02 |
| CC(C)CCNC(=O)C1(C)Cn2nc(C(=O)NCc3cccnc3)cc2C(=O)N1C (stereo not given) | 1.86 | 4.96 | 1.5 | 3.87 | 0.486 |
| CCCN1C(=O)c2c(C(=O)NCc3ccccc3)ncn2CC1(C)C(=O)NCCC(C)C (stereo not given) | 4.87 | 1.05 | 9.98 | 0.126 | 11.3 |
| O=C(O)[C@@H]1CN(C(=O)Cc2ccc(O)cc2)C[C@H]1c1cccc(F)c1 | -4.76 | -5.33 | -1.58 | -3.42 | -5.22 |
| Cc1ccc(S(=O)(=O)NC[C@H]2OC[C@@H](N(C)C)[C@@H]2O)cc1 | -1.87 | -2.05 | 0.601 | -3.7 | -1.43 |
| CCOc1ccccc1NC(=O)N1CCCCC1CCn1cc(C(=O)NCC2CC2)nn1 (stereo not given) | -0.97 | 2.32 | 2.52 | -4.31 | 12.4 |
| CCCn1c(=O)c2ccccc2n2c(=O)n(Cc3cccc(Cl)c3)nc12 | -5.55 | 3.48 | 1.18 | -5.38 | -0.725 |
| CCCS(=O)(=O)Nc1ccc(F)c(C(=O)c2c[nH]c3ncc(Cl)cc23)c1F | -17.5 | -2.03 | 5.36 | -19.6 | -4 |
| CCOc1ccccc1CN1C(=O)c2cc3sccc3n2CC1(C)C(=O)NC1CCCC(C)C1C (stereo not given) | -4.96 | 3.6 | -4.96 | 2.34 | -2.49 |
| COc1ccc(OC)c(CN2CCNc3cc(-c4ccnc(C)c4)ncc3C2)c1 | -33.7 | -11.5 | -93.8 | -38.5 | -8.34 |
| CCOC(=O)c1cc2n(n1)CC(C)(C(=O)NC1CCCCC1)N(Cc1ccc3c(c1)OCO3)C2=O (stereo not given) | -0.258 | 4.89 | -15.7 | -0.749 | 3.21 |
| O=c1[nH]c(-c2ccc(C(F)(F)F)cc2)nc2c1CSCC2 | 0.059 | -15.9 | 8.54 | -24.1 | -4.03 |
| COc1ccc(Nc2nc3c(S(=O)(=O)c4ccc(F)cc4)nnn3c3ccccc23)cc1 | -0.008 | 2.38 | 4.06 | 4.17 | -1.35 |
